Measurements as given in article PMC4336329 (PLoS ONE, 2015).
Screen size: about 310,000 compounds; about 2,200 (0.71%) showed an effect of 50% or more. Effects have a minus sign here. The list shows a part of the results.

Molecular target: human ether-à-go-go-related gene (hERG) potassium channel (human, UniProt Q12809)
Assay: primary screen, population patch clamp on CHO cells stably expressing hERG

Chain of human ether-à-go-go-related gene (hERG) potassium channel (Q12809 whole entry, looked up): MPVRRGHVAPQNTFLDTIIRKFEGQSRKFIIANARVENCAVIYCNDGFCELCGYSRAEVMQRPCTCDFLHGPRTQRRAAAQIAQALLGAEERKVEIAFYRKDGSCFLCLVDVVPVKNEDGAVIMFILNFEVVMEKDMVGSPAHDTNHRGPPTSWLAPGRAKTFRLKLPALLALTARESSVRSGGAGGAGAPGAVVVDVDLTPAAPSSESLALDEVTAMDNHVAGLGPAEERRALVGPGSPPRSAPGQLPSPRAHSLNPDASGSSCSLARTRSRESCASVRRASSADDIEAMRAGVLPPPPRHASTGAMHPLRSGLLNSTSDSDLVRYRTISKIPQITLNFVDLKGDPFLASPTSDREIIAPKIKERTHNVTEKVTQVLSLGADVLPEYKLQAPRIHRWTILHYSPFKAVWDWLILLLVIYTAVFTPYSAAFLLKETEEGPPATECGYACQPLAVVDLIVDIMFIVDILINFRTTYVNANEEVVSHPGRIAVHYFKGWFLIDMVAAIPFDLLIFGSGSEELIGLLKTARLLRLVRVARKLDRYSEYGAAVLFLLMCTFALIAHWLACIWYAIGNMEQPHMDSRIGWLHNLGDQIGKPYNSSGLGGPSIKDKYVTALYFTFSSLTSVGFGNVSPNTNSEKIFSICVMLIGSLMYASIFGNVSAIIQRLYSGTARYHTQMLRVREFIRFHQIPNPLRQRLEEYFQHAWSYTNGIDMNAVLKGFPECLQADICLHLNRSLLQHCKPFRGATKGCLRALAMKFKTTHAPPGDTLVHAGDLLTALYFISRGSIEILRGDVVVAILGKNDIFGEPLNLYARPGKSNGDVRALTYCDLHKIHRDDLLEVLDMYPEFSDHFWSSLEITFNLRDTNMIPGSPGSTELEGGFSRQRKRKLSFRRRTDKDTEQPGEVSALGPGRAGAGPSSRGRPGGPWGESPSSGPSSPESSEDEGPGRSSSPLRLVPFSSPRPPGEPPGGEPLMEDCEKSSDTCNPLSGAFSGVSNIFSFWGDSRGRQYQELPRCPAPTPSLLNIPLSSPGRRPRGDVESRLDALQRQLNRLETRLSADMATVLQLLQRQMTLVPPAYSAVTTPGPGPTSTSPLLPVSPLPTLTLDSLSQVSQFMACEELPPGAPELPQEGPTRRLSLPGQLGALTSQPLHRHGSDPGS

Compound	hERG current change (%, negative = inhibition) at 1uM
COc1ccccc1N(CC(O)COc1c(C)cc(C)cc1C)S(=O)(=O)c1ccccc1 (stereo not drawn)	5.45%
COc1cc(OC)cc(C(=O)Nc2nnc(Cc3ccc(OC)c(OC)c3)s2)c1	20.2%
CCc1nc(SCC(=O)Nc2ccc(F)cc2)c2c(=O)n(C)c(=O)n(C)c2n1	0.403%
Cc1ccc(S(=O)(=O)Nc2c(C)nc3nc[nH]n3c2=O)c(C)c1	21.5%
Cc1ccc(S(=O)(=O)Nc2cc(C(F)(F)F)ccc2N2CCOCC2)cc1C	2.71%
COC(=O)c1ccc(Oc2ccc3nnc(C)n3n2)cc1	7.92%
COc1cc(/C=C2\C(=O)N(CCC#N)N=C2C)c(Br)cc1OC(C)C	6.96%
CC(C)C(CCN1C(=O)CCC1=O)C1CCOC(C)(C)C1 (stereo not drawn)	13.5%
Nc1nc(Cn2nnc(-c3ccccc3Cl)n2)nc(N2CCOCC2)n1	-25.9%
CCOc1cc(C(=O)OCC(=O)Nc2c(C)cccc2C)ccc1OCC(=O)N1CCOCC1	8.79%
CCN1CCN(CCc2nc3cc(NC(=O)COc4ccc(Cl)cc4)ccc3n2C)CC1	-26.8%
CCOC(=O)C1(CC2CCCCO2)CCN(Cc2nc3ccccc3nc2C)CC1 (stereo not drawn)	5.83%
NS(=O)(=O)c1ccc(N2CCCCCC2)c([N+](=O)[O-])c1	11.6%
C=CCn1c(-c2cc(Cl)ccc2OC)n[nH]c1=S	14.7%
C/C(=N\N=C1/SC(CC(=O)O)C(=O)N1c1ccccc1)c1ccc(C)cc1 (stereo not drawn)	16.9%
COc1cc2c(cc1OC)C(c1cccc(F)c1)CC(=O)N2 (stereo not drawn)	6.8%
CN(C)CCCN(C(=O)c1ccco1)c1nc2ccc(Cl)cc2s1.Cl	-14.7%
CC(C)(C)C(=O)OCc1nc(-c2ccc3c(c2)OCCO3)cs1	4.02%
O=C(O)c1cccc(-n2nc(-c3ccc(Cl)c([N+](=O)[O-])c3)c3ccccc3c2=O)c1	12.7%
CSc1ccc(S(=O)(=O)N2CCC(C(=O)NCCCn3ccnc3)CC2)cc1	12.8%
CC1=C(Sc2ccccn2)C(=O)NC(C)(C)C1	12%
COc1cc(C(=O)NCC2(N(C)C)CCCCC2)ccc1OCc1ccccc1	-22.7%
COC(=O)CSc1nc2cc3c(cc2cc1C)OCO3	14.7%

Compound	hERG current change (%, negative = inhibition) at 1uM
CCOC(=O)c1ccc(CC(=O)c2oc3cc(O)ccc3c2C)o1	8.61%
O=[N+]([O-])c1ccccc1OCCCNCc1ccccc1	4.87%
c1ccc(Nc2cccc(Nc3ccccc3)c2)cc1	9.66%
CC(C)(C)c1ccc(OCc2ccc(C(=O)N/N=C/c3ccc(O)c(O)c3)cc2)cc1	6.22%
COc1cccc(N2CCN(C(=O)c3ccc(CSc4nc5ccncc5[nH]4)cc3)CC2)c1	4.18%
COc1ccc(C2=NN(C(=O)CSc3cn(C)c4ccccc34)C(c3ccc(OC)cc3)C2)cc1 (stereo not drawn)	12%
Cc1cccc(N2CCN(Cc3ccoc3)CC2)c1C	3.84%
O=C1CC(C2CCCO2)C(=O)N1c1cccc(Cl)c1 (stereo not drawn)	8.41%
COc1ccc(NCc2nnc(SCC(=O)NCc3ccco3)n2-c2ccccc2OC)cc1	6.22%
COc1ccc2nc(SCC(N)=O)cc(C)c2c1	9.46%
C#CCOn1c(-n2nc(C)cc2C)nc2ccccc2c1=O	12.8%
O=CN1CCN(C(=O)c2ccccc2Cl)CC1	19%
CCN(CC)S(=O)(=O)c1ccc(Cl)c(C(=O)Nc2ccc(Cl)cc2[N+](=O)[O-])c1	2.04%
O=C(O)c1ccc(COc2ccc([N+](=O)[O-])cc2)o1	16.6%
C=CCn1c(SCC(C)=O)nc2sc3c(c2c1=O)CCC3	7.25%
O=C(NCc1ccco1)c1ccc(Br)c(S(=O)(=O)N2CCCCC2)c1	-4.85%
Cc1cc(Cl)ccc1OCCCC(=O)NCCCn1ccnc1	-17.4%
O=C(O)C1CCCCC1C(=O)Nc1cccc(C(=O)N2CCCCC2)c1 (stereo not drawn)	5.17%
CCOc1ccc(CCNC(=O)c2ccc3ccccc3n2)cc1OCC	10.5%
CCOc1ccc(Br)cc1S(=O)(=O)NC1CCCC1	4.8%
CCn1cc(CNC(=O)c2cc(-c3ccccc3OC)nc3ccccc23)c(C)n1	3.55%
Cc1ccc(S(=O)(=O)NC(CC(C)C)C(=O)N2CCCCCCC2)cc1 (stereo not drawn)	10.9%
